About 50,000 (12%) of roughly 420,000 compounds were called active. The inconclusive results got no clear call from the source; some entries with a clear call stand among them for comparison. Calls come from the whole dose curve; as a rule, active = well fitted inhibition curve with a large enough effect; inconclusive = small, poorly fitted or top-dose-only effect; inactive = flat fitted curve, though single readings scatter. No potency is given beside an inconclusive call; the fits are too rough.
Test: qHTS for Inhibitors of human tyrosyl-DNA phosphodiesterase 1 (TDP1): qHTS in cells in presence of CPT; note: nearly all actives have a fitted effect of over 55% in size
Settings: chicken DT40 Tdp1-/-;hTDP1 cells + 20 nM CPT, ATP luminescence, 48 h; activity change, negative = growth inhibition: at 46.2 µM (top of the series) unless noted
How it was run: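 Chicken DT40 Tdp1-/- cells complemented with human TDP1, 400 cells/well, exposed to compounds plus 20 nM camptothecin for at least 48 h at 37 C; viability read as ATP content by CellTiter-Glo luminescence.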
% is set by controls: 0 for no effect and ±100 for the full control effect; potency is the fitted concentration of half-maximal effect; tags give direction and shape of the fitted curve.

Which Potency does the source give for `CCCCCCCCNCCS(=O)(=O)NN1CCOCC1` here?
Its Potency is “inactive”.

Which Potency does the source give for `Cc1ccc(CSc2n[nH]c(N)n2)cc1` here?
The Potency was “inactive”.

With `CCN(CCCNC(=O)c1cc2c(Cl)nc3ccccc3c2s1)Cc1ccccc1` as the compound, how does the Potency read?
Its Potency is inconclusive [inhibitor, single point].

With `Cc1ccc(S(=O)(=O)N2CCCC2CNC(=O)C(=O)NC2CCCC2)cc1` (configuration not stated) as the compound, how does the Potency read?
Its Potency is inconclusive [inhibitor, single point].

For `O=C(NNC(=O)c1ccccc1O)c1cccc(Br)c1`, which Potency is on record?
Its Potency is inconclusive [inhibitor, single point].

With `C=CCNC(=O)c1n[nH]c2c1CC(C(C)(C)CC)CC2` (configuration not stated) as the compound, how does the Potency read?
The Potency was inconclusive [inhibitor, single point].

With `O=C(C1=NN(c2ccccc2)C(=O)CC1)N1CCc2ccccc2C1` as the compound, how does the Potency read?
Its Potency is “inactive”.

With `CCOC(=O)N1CCN(C(=O)CSCC(=O)Nc2nc(-c3ccccc3)cs2)CC1` as the compound, how does the Potency read?
Its Potency is active: 20.6 µM.

Which Potency does the source give for `CSc1nc2ccccc2cc1/C=C(\C#N)c1cccc(C)c1` here?
The Potency was inconclusive [inhibitor, single point].

Which Potency does the source give for `O=C(NCCC1=CCCCC1)C1CCC(CNc2c(N3CCCC3)c(=O)c2=O)CC1` (configuration not stated) here?
The Potency was “inactive”.

For `CCOC(=O)c1cn(CC2CC2)c2cc(F)c(F)cc2c1=O`, which Potency is on record?
Its Potency is “inactive”.

With `CCN(CC)CCNC(=O)Nc1ccc2c(c1)N(Cc1ccccc1)C(=O)c1ccccc1S2` as the compound, how does the Potency read?
The Potency was inconclusive [inhibitor, single point].

For `CC1C/C(=C/c2cccn2C)C(=O)/C(=C/c2cccn2C)C1` (configuration not stated), which Potency is on record?
The Potency was active: 23.1 µM.

With `CCOC(=O)Cc1csc(NC(=O)NC2(C(F)(F)F)Oc3cc(Cl)c(Cl)cc3O2)n1` as the compound, how does the Potency read?
The Potency was active: 23.1 µM.

Which Potency does the source give for `Cc1ccc(/C=C/c2ccc(=O)n(Cc3ccc(F)cc3)n2)cc1` here?
Its Potency is inconclusive [inhibitor, single point].

With `COC(=O)c1ccc(Oc2ccc(C(C)(C)C)cc2)c([N+](=O)[O-])c1` as the compound, how does the Potency read?
The Potency was inconclusive [inhibitor, single point].

Which Potency does the source give for `COc1ccc(/C=C2\SC(=S)N(CC(=O)N3CCN(C)CC3)C2=O)cc1` here?
Its Potency is inconclusive [inhibitor, single point].

With `CCC(C)(O)c1[nH]c2ccc(C(F)(F)F)cc2c1C` (configuration not stated) as the compound, how does the activity change, negative = growth inhibition read?
Its activity change, negative = growth inhibition is inconclusive: -31.1% [inhibitor].

With `CC(C)(C)c1ccc(-c2nc(SCC(=O)Nc3ccc(Cl)cc3)[nH]c(=O)c2C#N)cc1` as the compound, how does the Potency read?
Its Potency is “inactive”.

Which Potency does the source give for `CC(Sc1nc(N)c2c3c(sc2n1)CSC(C)(C)C3)C(=O)Nc1ccccc1` (configuration not stated) here?
The Potency was active: 18.4 µM.

Which Potency does the source give for `Cc1nn2c(NCCN(C)C)c3c(nc2c1-c1ccccc1)CCCC3` here?
Its Potency is active: 0.58 µM.

With `Cc1cc(C)cc(N(CCC(=O)Nc2nnc(C)s2)S(=O)(=O)c2ccc(Cl)cc2)c1` as the compound, how does the Potency read?
The Potency was inconclusive [inhibitor, single point].

Which Potency does the source give for `CCOC(=O)c1c(NC(=O)CSc2nnc(-c3cccnc3)o2)sc(C(C)=O)c1C` here?
Its Potency is inconclusive [inhibitor, single point].

With `CCCCOc1cccc(C(=O)N(Cc2cccs2)c2ccc(OC)cc2)c1` as the compound, how does the Potency read?
The Potency was inconclusive [inhibitor, single point].

Which Potency does the source give for `CCCCn1c(SCC(=O)NCc2ccco2)nc2ccccc2c1=O` here?
Its Potency is inconclusive [inhibitor, single point].

Which Potency does the source give for `CCc1ccc(S(=O)(=O)N(C(=O)Oc2ccccc2)c2ccc3oc(C)c(C(=O)OC)c3c2)cc1` here?
Its Potency is active: 3.66 µM.

For `COc1cccc(-n2c(-c3cccc(F)c3)nc3c(cnn3-c3ccc(C)cc3)c2=O)c1`, which Potency is on record?
The Potency was inconclusive [inhibitor, single point].

For `CCc1ccc(S(=O)(=O)/N=C2\C=C(Nc3cccc(C(=O)O)c3)C(=O)c3ccccc32)cc1`, which Potency is on record?
The Potency was active: 18.4 µM.

With `O=C(NCc1ccc(F)cc1)c1cc(-c2ccccn2)nc2ccc(S(=O)(=O)N3CCOCC3)cc12` as the compound, how does the Potency read?
Its Potency is “inactive”.

Which Potency does the source give for `CCN(CC)C(=O)CSc1nc2ccc(NC(=O)CSc3nnc(COc4ccccc4C)n3C)cc2s1` here?
Its Potency is inconclusive [inhibitor, single point].

Which Potency does the source give for `Cc1c(-c2ccc(Cl)cc2)c(=O)oc2ccc(OC(=O)N3CCOCC3)cc12` here?
Its Potency is inconclusive [inhibitor, single point].

With `O=C1C=CC(=O)N1Cc1ccccc1` as the compound, how does the Potency read?
The Potency was active: 1.03 µM.

Which Potency does the source give for `O=C(NCCc1c[nH]c2ccccc12)C1CCN(S(=O)(=O)c2ccccc2F)CC1` here?
The Potency was inconclusive [inhibitor, single point].

For `COc1ccc(N2C=C3C(=O)C(C)(OC(=O)CCc4ccccc4)C(=O)C=C3C=C2c2ccc(C#N)cc2)cc1` (configuration not stated), which Potency is on record?
Its Potency is inconclusive [inhibitor, single point].

With `Cc1ccccc1CN1C(=O)c2ccccc2Sc2ccc(C(=O)NC3CCCC3)cc21` as the compound, how does the Potency read?
Its Potency is active: 16.4 µM.

Which Potency does the source give for `CCOCCCNS(=O)(=O)c1ccc(-n2cnnn2)c(OC)c1` here?
Its Potency is “inactive”.

For `O=S(=O)(NCc1ccc(Cl)cc1)c1ccc(-c2cnc(C3CC3)o2)cc1`, which Potency is on record?
The Potency was inconclusive [inhibitor, single point].

With `COc1ccc(OC)c(/C=C/C(=O)Nc2ccc(C(=O)OCCC(C)C)cc2)c1` as the compound, how does the Potency read?
The Potency was active: 18.4 µM.

With `CCN(CC)C1CCCCC1NS(=O)(=O)c1ccc(Cl)cc1` (configuration not stated) as the compound, how does the Potency read?
Its Potency is “inactive”.

With `COc1ccc(NC(=O)C2Cc3c(-c4cccc(NC(C)=O)c4)ccnc3O2)cn1` (configuration not stated) as the compound, how does the Potency read?
Its Potency is active: 2.59 µM.

Which Potency does the source give for `Cc1ccc(-c2nc(CS(=O)CC(=O)N3CCN(c4ncccn4)CC3)c(C)o2)cc1` (configuration not stated) here?
The Potency was inconclusive [inhibitor, partial curve].

For `CCN(Cc1ccccc1)c1ncnc2c1nnn2C`, which Potency is on record?
The Potency was “inactive”.

For `CCCc1c(C(=O)NNc2cccc(Cl)c2)cnn1-c1ccccc1`, which Potency is on record?
The Potency was inconclusive [inhibitor, single point].

For `O=C(NCCCc1ccccc1)C1CCC(CNc2c(N3CCCCC3)c(=O)c2=O)CC1` (configuration not stated), which Potency is on record?
Its Potency is “inactive”.

With `Cc1ccc(Cl)cc1-n1ncc2c(N3CCCCCC3)ncnc21` as the compound, how does the Potency read?
The Potency was active: 5.8 µM.

With `CCCCN(CCCC)C(=O)C1CCN(S(=O)(=O)c2cccc3nsnc23)CC1` as the compound, how does the Potency read?
Its Potency is active: 16.4 µM.

Which Potency does the source give for `Clc1ccc(NCn2cncn2)nc1` here?
Its Potency is active: 23.1 µM.
